Some of the results follow. At the low end of the ranking, values are background and their order means little.

For the assay, the target named is GST-SBP-SLBP (stem-loop binding protein) (UniProt Q14493). In words: targeted RNA Bind-n-Seq.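 Note: DESeq read counts versus GST-SBP nonspecific binding control pulldown.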 Conditions: RBNS binding buffer: 25 mM Tris pH 7.5, 150 mM KCl, 3 mM MgCl2, 0.1% Tween, 0.5 mg/mL BSA, 1 mM DTT; 27 nM protein, 750 pM RNA pool; temperature not stated; high values mean tight binding.
Turning to “GGUCACGUCUCAAUCAACUCUUCUCCCAGGGAAACCCCUGGCUUAUUCAACAGCUCGCAGUCAAG”, the binding signal (log2 fold change) is -0.256.
As to “GGUCACGUCUCAAUCAACUCAUCUCCCAGGGAAAGCCCUGGUAAAUUCAACAGCUCGCAGUCAAG”, the binding signal (log2 fold change) was -0.107.
The value for “GGUCACGUCUCAAUCAACUCAUCUCCAGGAGUUUCCUCCUGCUAACUCAACAGCUCGCAGUCAAG” was 0.133.
The value for “GGUCACGUCUCAAUCAACUCAGUCCCCAGGGAAAUCCCUGGUAUAUUCAACAGCUCGCAGUCAAG” was -0.00212; that for “GGUCACGUCUCAAUCAACUCUCCCGAGGGGGGGAAAACCCCUUUACCCUCAUCUUCAACAGCUCGCAGUCAAG” was -0.256.
On to “GGUCACGUCUCAAUCAACUCAACUGAGGGGGGGAAAACCCCUUUACCCUCCACAUCAACAGCUCGCAGUCAAG”, for which the binding signal (log2 fold change) was 0.388.
For the sequence “GGUCACGUCUCAAUCAACUCCCAAGAGGGGGGGAAAACCCCUUUACCCUCGUAAUCAACAGCUCGCAGUCAAG”, the binding signal (log2 fold change) was 0.444.
The value for “GGUCACGUCUCAAUCAACUCUCAAGAGGGGGGGAAAACCCCUUUGCCCUCGUCAUCAACAGCUCGCAGUCAAG” was -0.143; that for “GGUCACGUCUCAAUCAACUCUCUGGAGGGGGGGAAAACCCCUUUACCCUCAAUUUCAACAGCUCGCAGUCAAG” was -0.116.
Take “GGUCACGUCUCAAUCAACUCAAUUUCAGGAGUUUCCUCCUGCAUUUUCAACAGCUCGCAGUCAAG”: the binding signal (log2 fold change) is -0.000916.
On to “GGUCACGUCUCAAUCAACUCUACUUCCAGGGAAAGCCCUGGCAUUUUCAACAGCUCGCAGUCAAG”, for which the binding signal (log2 fold change) was determined as 0.231.
Turning to “GGUCACGUCUCAAUCAACUCAUUCUCCAGGGAAAGCCCUGGUUAACUCAACAGCUCGCAGUCAAG”, the binding signal (log2 fold change) was found to be 0.072.
For the sequence “GGUCACGUCUCAAUCAACUCUUUUUCCAGGGAAAUCCCUGGUAUACUCAACAGCUCGCAGUCAAG”, the binding signal (log2 fold change) was -0.22.
On to “GGUCACGUCUCAAUCAACUCAUUUUCAGGAGUUUACUCCUGCAUACUCAACAGCUCGCAGUCAAG”, for which the binding signal (log2 fold change) is -0.0653.
For “GGUCACGUCUCAAUCAACUCUUUUCCAGGAGUUUUCUCCUGUAUACUCAACAGCUCGCAGUCAAG”, the binding signal (log2 fold change) was -0.12.
Regarding “GGUCACGUCUCAAUCAACUCUUUAGAGGGGGGGAAAACCCCUUUGCCCUCCAACUCAACAGCUCGCAGUCAAG”, the binding signal (log2 fold change) was -0.302.
For “GGUCACGUCUCAAUCAACUCAAUUUCCAGGGAAAGCCCUGGCAUAUUCAACAGCUCGCAGUCAAG”, the binding signal (log2 fold change) is -0.0217.
As for “GGUCACGUCUCAAUCAACUCAACUUCCAGGGAAAGCCCUGGCAAACUCAACAGCUCGCAGUCAAG”, the binding signal (log2 fold change) is -0.109.
Consider “GGUCACGUCUCAAUCAACUCUAAAGAGGGGGGGAAAACCCCUUUACCCUCCUACUCAACAGCUCGCAGUCAAG”, for which the binding signal (log2 fold change) amounted to 0.315.
With “GGUCACGUCUCAAUCAACUCAACUCCAGGAGUUUUCUCCUGCUUAUUCAACAGCUCGCAGUCAAG”, the binding signal (log2 fold change) worked out at 0.0147.

Values taken from article PMC5892938.
